Data from PubChem BioAssay AID686979 (National Center for Advancing Translational Sciences (NCATS), 2013).
About 50,000 (12%) of roughly 420,000 compounds were called active. The inconclusive results got no clear call from the source; some entries with a clear call stand among them for comparison. Calls follow the shape of the dose curve; as a rule, active = well fitted inhibition curve with a large enough effect; inconclusive = small, poorly fitted or top-dose-only effect; inactive = flat fitted curve, though single readings scatter. No potency is given beside an inconclusive call; the fits are too rough.
% is scaled to controls: 0 for no effect and ±100 for the full control effect; potency is read from the fitted curve at half-maximal effect; tags tell the direction and shape of the fitted curve.

Assay: qHTS for Inhibitors of human tyrosyl-DNA phosphodiesterase 1 (TDP1): qHTS in cells in presence of CPT; also: nearly all actives have a fitted effect of over 55% in size
Conditions: chicken DT40 Tdp1-/-;hTDP1 cells + 20 nM CPT, ATP luminescence, 48 h; activity change, negative = growth inhibition: at 46.2 µM (top of the series) unless noted
Summary of the method: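 Cell growth measured by CellTiter-Glo luminescence after a minimum 48 h, 37 C compound exposure with 20 nM CPT in Tdp1-knockout DT40 cells stably expressing hTDP1, seeded 400/well; qHTS titration format.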
In the case of `O=C(/C=C/c1ccco1)Nc1cc(Cl)ccc1C(=O)O`, the Potency is reported as inconclusive [inhibitor, single point]. With `CCOC(=O)c1cc(-c2ccccc2)sc1NC(=O)c1cc(OC)c(OC)c(OC)c1` the Potency was inconclusive [inhibitor, single point]. In the case of `O=c1c([N+](=O)[O-])c(NC2CCCCC2)c2ccccc2n1-c1ccccc1`, the Potency is reported as active: 16.4 µM. In the case of `C#Cc1ccc([C@H]2C=C(C(=O)NCc3nc4ccccc4[nH]3)O[C@@H](OCC)[C@@H]2CCCO)cc1`, the Potency is reported as inconclusive [inhibitor, single point]. In the case of `COC(=O)[C@]12CCCCC=C1N(Cc1ccco1)C(=O)[C@H](CC(=O)NCc1cccs1)C2`, the Potency is reported as inconclusive [inhibitor, single point]. In the case of `CCN(C(=O)CSc1nnc(-c2ccc(Cl)cc2)o1)c1ccccc1`, the Potency is reported as inconclusive [inhibitor, single point]. For `COc1ccc(CCN(C)C(=O)COc2cccc(-n3cnnn3)c2)cc1OC`, the “activity change, negative = growth inhibition” value was inactive: 11.5%. For `Cc1nn(-c2ccc(F)cc2)c(C)c1/C=C/C(=O)N1CCNC(=O)C1`, the “activity change, negative = growth inhibition” value was inactive: -11.2%. In the case of `Cc1ccc(S(=O)(=O)N[C@H](C(=O)OCn2nnc3ccccc3c2=O)C(C)C)cc1`, the activity change, negative = growth inhibition is reported as inconclusive: -32.8% [inhibitor]. In the case of `NC(=O)CN(N=Nc1cccc([N+](=O)[O-])c1)c1cccc([N+](=O)[O-])c1`, the Potency is reported as inconclusive [inhibitor, partial curve]. With `CC1CN(C(=S)SCC(=O)c2ccccc2)CC(C)O1` (configuration not stated) the Potency was inconclusive [inhibitor, partial curve, poor fit]. For `Clc1ccc(-c2ccc(SCc3ccccn3)nn2)cc1`, the activity change, negative = growth inhibition was inconclusive: -33.6% [inhibitor]. With `COc1cc(NC(=O)c2cccc(Cl)c2)c(OC)cc1NC(=O)CN1CCCCC1` the Potency was inconclusive [inhibitor, single point]. For `CCOC(=O)c1c(C)nc(C)c2c(=O)oc3ccccc3c12`, the Potency was inconclusive [inhibitor, full curve, poor fit]. For `O=C(CN1CCCCCC1)Nc1ccc([N+](=O)[O-])cc1Cl`, the “activity change, negative = growth inhibition” value was inactive: -12.9%. In the case of `[O-][n+]1cccc2c(Br)cc(Br)c(O)c21`, the Potency is reported as inconclusive [inhibitor, partial curve]. In the case of `CCOC(=O)N1CCN(c2cc(C)c(C(C)=O)cc2F)CC1`, the Potency is reported as inconclusive [inhibitor, single point]. For `Cc1ccc2nc(N3CCN(C(=O)C4COc5ccccc5O4)CC3)sc2c1` (configuration not stated), the Potency was inconclusive [inhibitor, single point]. For `C[C@H]1CCC2[C@](C)(CO)[C@@H](O)CC[C@]2(C)[C@@]12CCC(CO)(CCO)O2` (some centres not stated), the “activity change, negative = growth inhibition” value was inactive: 17.7%. With `O=c1cc(CN2CCOCC2)c2ccccc2o1` the “activity change, negative = growth inhibition” value was inactive: -12.3%. With `COCCNC(=O)C1(C)CCCN(Cc2ccc(Cl)nc2)C1` (configuration not stated) the “activity change, negative = growth inhibition” value was inactive: -3.82%. For `CCCCSCc1nc2ccccn2c1Br`, the Potency was inconclusive [inhibitor, single point]. For `CCCOc1ccc(F)cc1-c1cc(C(=O)Nc2ccccc2)[nH]n1`, the “activity change, negative = growth inhibition” value was inactive: 1.07%. With `CCC1(CC(C)C)SC(N)=NC1=O` (configuration not stated) the “activity change, negative = growth inhibition” value was inactive: 3.21%. In the case of `CCOc1ccc(NS(=O)(=O)c2ccc(C(=O)NNC(=O)c3ccccc3O)cc2)cc1`, the Potency is reported as inconclusive [inhibitor, single point]. In the case of `CCCCNCCOCCOc1ccc(Cl)cc1Br`, the Potency is reported as active: 20.6 µM. For `COCCNC(=O)CC(=O)N/N=C/c1cccc(C(=O)OC)c1`, the “activity change, negative = growth inhibition” value was inactive: 2.32%. For `O=C(CN1CCCN(S(=O)(=O)c2ccc(F)cc2)CC1)Nc1ccccc1Br`, the Potency was inconclusive [inhibitor, single point]. With `COC(=O)C1=C(C)NC(=O)NC1c1ccc(-c2ccccc2Cl)o1` (configuration not stated) the Potency was active: 10.3 µM. With `CCOCCOC(=O)c1cccc2c1-c1ccccc1C2=O` the “activity change, negative = growth inhibition” value was inactive: -18.7%. In the case of `COc1ccccc1CNC(=O)COc1cc2c(c3oc(=O)cc(C)c13)CCC(C)(C)O2`, the Potency is reported as active: 23.1 µM. In the case of `N#C/C(=C\c1ccc(-c2ccccc2[N+](=O)[O-])o1)C(=O)Nc1nc(-c2cccs2)cs1`, the Potency is reported as inconclusive [inhibitor, single point]. With `Cc1ccc(-c2nc(-c3ccccn3)no2)cc1Cl` the Potency was inconclusive [inhibitor, partial curve]. With `COc1ccc(CNC(=O)c2cc3c(=O)n(Cc4cccs4)ccc3nc2C)cc1` the Potency was inconclusive [inhibitor, single point]. For `O=C(Nc1c2c(nn1-c1ccccc1)CS(=O)(=O)C2)c1ccccc1Br`, the “activity change, negative = growth inhibition” value was inactive: 0.1%. With `Cc1nn(Cc2ccccc2)c(C)c1NC(=O)c1cc(C(C)C)on1` the Potency was inconclusive [inhibitor, single point]. For `Cn1c(NCc2cccnc2)nc2cc(-c3ccc(F)cc3)sc2c1=O`, the “activity change, negative = growth inhibition” value was inactive: -8.93%. For `O=C(Nc1ccccc1N1CCCCC1)c1cc(S(=O)(=O)N2CCOCC2)ccc1F`, the Potency was inconclusive [inhibitor, single point]. For `c1ccc(CSc2nnc(-c3ccco3)n2Cc2ccco2)cc1`, the Potency was inconclusive [inhibitor, partial curve, poor fit]. In the case of `Cc1ccc(C(=O)NC(=S)Nc2ccc(-c3ccc(CO)o3)cc2)cc1`, the Potency is reported as inconclusive [inhibitor, single point]. In the case of `O=C(CN1CCCCCC1)Nc1ccc([N+](=O)[O-])cc1Br`, the Potency is reported as inconclusive [inhibitor, single point]. With `Clc1ccc2[nH]cc(-c3nnnn3-c3ccc4ccccc4c3)c2c1` the Potency was inconclusive [inhibitor, single point]. In the case of `CCN1CCN(S(=O)(=O)c2ccc(Cl)c(C(=O)NCCc3ccccc3)c2)CC1`, the “activity change, negative = growth inhibition” value is reported as inactive: -7.25%. For `COc1ccc(NC(=O)CNc2cccc(C#N)c2)cc1Cl`, the “activity change, negative = growth inhibition” value was inactive: -7.22%. In the case of `COc1cccc(C2c3[nH]c4ccccc4c3CCN2Cc2cnn(C)c2)c1` (configuration not stated), the “activity change, negative = growth inhibition” value is reported as inactive: -11.8%. For `COCCSc1nc2c(c(=O)[nH]c(=O)n2C)n1CCC(C)C`, the activity change, negative = growth inhibition was inconclusive: -31.6% [inhibitor]. For `O=c1c(C=Nc2cccc(C(F)(F)F)c2)c[nH]n1-c1cccc(Cl)n1`, the Potency was inconclusive [inhibitor, single point].
